Assay results reported in PubChem BioAssay (NCI).
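Values below derive from 48-hour exposures of cells grown in 96-well plates, with endpoints linearly interpolated between the two concentrations bracketing the appropriate inhibition level. Abbreviation: GI50, concentration required for 50% inhibition of growth.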 A number of entries come with more than one value. This is not the full list of results. There may be further records. Values that stand side by side are repeats across runs, samples, wells, individuals or studies. A tag in brackets gives the origin of a value. Letters hold for one entry only.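 TGI denotes the concentration required for complete inhibition of growth.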

What was measured:
Experiment in all cases: NCI tumour cell line growth inhibition, 48 h
786-0 renal = tested on: 786-0 renal
A498 renal = tested on: A498 renal
A549 NSCLC = tested on: A549 NSCLC
ACHN renal = tested on: ACHN renal
BT-549 breast = tested on: BT-549 breast
CAKI-1 renal = tested on: CAKI-1 renal
CCRF-CEM leukemia = tested on: CCRF-CEM leukemia
COLO 205 colon = tested on: COLO 205 colon
DU-145 prostate = tested on: DU-145 prostate
EKVX NSCLC = tested on: EKVX NSCLC
HCC-2998 colon = tested on: HCC-2998 colon
HCT-116 colon = tested on: HCT-116 colon
HCT-15 colon = tested on: HCT-15 colon
HL-60(TB) leukemia = tested on: HL-60(TB) leukemia
HOP-62 NSCLC = tested on: HOP-62 NSCLC
HT29 colon = tested on: HT29 colon
IGROV1 ovarian = tested on: IGROV1 ovarian
KM12 colon = tested on: KM12 colon
LOX IMVI melanoma = tested on: LOX IMVI melanoma
M14 melanoma = tested on: M14 melanoma
MCF7 breast = tested on: MCF7 breast
MDA-MB-231 breast = tested on: MDA-MB-231 breast
MDA-MB-435 = tested on: MDA-MB-435
MOLT-4 leukemia = tested on: MOLT-4 leukemia
NCI-H226 lung = tested on: NCI-H226 lung
NCI-H23 lung = tested on: NCI-H23 lung
NCI-H460 lung = tested on: NCI-H460 lung
NCI-H522 lung = tested on: NCI-H522 lung
OVCAR-5 ovarian = tested on: OVCAR-5 ovarian
OVCAR-8 ovarian = tested on: OVCAR-8 ovarian
PC-3 prostate = tested on: PC-3 prostate
RPMI-8226 leukemia = tested on: RPMI-8226 leukemia
RXF 393 renal = tested on: RXF 393 renal
SF-268 CNS = tested on: SF-268 CNS
SF-295 CNS = tested on: SF-295 CNS
SF-539 CNS = tested on: SF-539 CNS
SK-MEL-2 melanoma = tested on: SK-MEL-2 melanoma
SK-MEL-5 melanoma = tested on: SK-MEL-5 melanoma
SK-OV-3 ovarian = tested on: SK-OV-3 ovarian
SN12C renal = tested on: SN12C renal
SNB-19 CNS = tested on: SNB-19 CNS
SR leukemia = tested on: SR leukemia
SW-620 colon = tested on: SW-620 colon
T-47D breast = tested on: T-47D breast
U251 CNS = tested on: U251 CNS
UACC-257 melanoma = tested on: UACC-257 melanoma
UACC-62 melanoma = tested on: UACC-62 melanoma
UO-31 renal = tested on: UO-31 renal

COc1cc(C)c(-c2ccc(OC)c(=O)cc2C)c(OC)c1OC
GI50 (786-0 renal): 4.49 µM [sample A, 1 test] and > 100 µM [sample B, 1 test] | GI50 (A498 renal): 787 nM [sample A, 1 test] and > 100 µM [sample B, 1 test] | TGI (A498 renal): 4.54 µM [sample A, 1 test] and > 100 µM [sample B, 1 test] | GI50 (A549 NSCLC): 3.78 µM [sample A, 1 test] and > 100 µM [sample B, 1 test] | GI50 (ACHN renal): 5.35 µM [sample A, 1 test] and > 100 µM [sample B, 1 test] | GI50 (BT-549 breast): 2.03 µM [sample A, 1 test] and > 100 µM [sample B, 1 test] | TGI (BT-549 breast): 6.57 µM [sample A, 1 test] and > 100 µM [sample B, 1 test] | GI50 (CAKI-1 renal): 943 nM [sample A, 1 test] and > 100 µM [sample B, 1 test] | GI50 (CCRF-CEM leukemia): 1.96 µM [sample A, 1 test] and > 100 µM [sample B, 1 test] | GI50 (COLO 205 colon): 1.73 µM [sample A, 1 test] and > 100 µM [sample B, 1 test] | TGI (COLO 205 colon): 4.45 µM [sample A, 1 test] and > 100 µM [sample B, 1 test] | GI50 (DU-145 prostate): 3.53 µM [sample A, 1 test] and > 100 µM [sample B, 1 test] | GI50 (EKVX NSCLC): 6.56 µM [sample A, 1 test] and > 100 µM [sample B, 1 test] | GI50 (HCC-2998 colon): 2.82 µM [sample A, 1 test] and > 100 µM [sample B, 1 test] | GI50 (HCT-116 colon): 1.93 µM [sample A, 1 test] and > 100 µM [sample B, 1 test] | GI50 (HCT-15 colon): 682 nM [sample A, 1 test] and > 100 µM [sample B, 1 test] | GI50 (HL-60(TB) leukemia): 684 nM [sample A, 1 test] and > 100 µM [sample B, 1 test] | TGI (HL-60(TB) leukemia): 7.91 µM [sample A, 1 test] and > 100 µM [sample B, 1 test] | GI50 (HOP-62 NSCLC): 3.79 µM [sample A, 1 test] and > 100 µM [sample B, 1 test] | GI50 (HT29 colon): 1.87 µM [sample A, 1 test] and > 100 µM [sample B, 1 test] | TGI (HT29 colon): 9.55 µM [sample A, 1 test] and > 100 µM [sample B, 1 test] | GI50 (IGROV1 ovarian): 4.26 µM [sample A, 1 test] and > 100 µM [sample B, 1 test] | GI50 (KM12 colon): 1.61 µM [sample A, 1 test] and > 100 µM [sample B, 1 test] | GI50 (LOX IMVI melanoma): 2.05 µM [sample A, 1 test] and > 100 µM [sample B, 1 test] | GI50 (M14 melanoma): 849 nM [sample A, 1 test] and > 100 µM [sample B, 1 test] | GI50 (MCF7 breast): 785 nM [sample A, 1 test] and > 100 µM [sample B, 1 test] | GI50 (MDA-MB-231 breast): 2.57 µM [sample A, 1 test] and > 100 µM [sample B, 1 test] | GI50 (MDA-MB-435): 270 nM [sample A, 1 test] and 72.2 µM [sample B, 1 test] | TGI (MDA-MB-435): 741 nM [sample A, 1 test] and > 100 µM [sample B, 1 test] | GI50 (MOLT-4 leukemia): 2.64 µM [sample A, 1 test] and > 100 µM [sample B, 1 test] | GI50 (NCI-H226 lung): 3.92 µM [sample A, 1 test] and > 100 µM [sample B, 1 test] | GI50 (NCI-H23 lung): 4.03 µM [sample A, 1 test] and > 100 µM [sample B, 1 test] | GI50 (NCI-H460 lung): 2.83 µM [sample A, 1 test] and > 100 µM [sample B, 1 test] | GI50 (NCI-H522 lung): 1.86 µM [sample A, 1 test] and > 100 µM [sample B, 1 test] | TGI (NCI-H522 lung): 5.35 µM [sample A, 1 test] and > 100 µM [sample B, 1 test] | GI50 (OVCAR-5 ovarian): 4.34 µM [sample A, 1 test] and > 100 µM [sample B, 1 test] | GI50 (OVCAR-8 ovarian): 3.38 µM [sample A, 1 test] and > 100 µM [sample B, 1 test] | GI50 (PC-3 prostate): 2.29 µM [sample A, 1 test] and > 100 µM [sample B, 1 test] | GI50 (RPMI-8226 leukemia): 4.12 µM [sample A, 1 test] and > 100 µM [sample B, 1 test] | GI50 (RXF 393 renal): 1.96 µM [sample A, 1 test] and > 100 µM [sample B, 1 test] | GI50 (SF-268 CNS): 5.46 µM [sample A, 1 test] and > 100 µM [sample B, 1 test] | GI50 (SF-295 CNS): 1.73 µM [sample A, 1 test] and > 100 µM [sample B, 1 test] | GI50 (SF-539 CNS): 2.26 µM [sample A, 1 test] and > 100 µM [sample B, 1 test] | GI50 (SK-MEL-2 melanoma): 887 nM [sample A, 1 test] and > 100 µM [sample B, 1 test] | TGI (SK-MEL-2 melanoma): 6.65 µM [sample A, 1 test] and > 100 µM [sample B, 1 test] | GI50 (SK-MEL-5 melanoma): 3.13 µM [sample A, 1 test] and > 100 µM [sample B, 1 test] | GI50 (SK-OV-3 ovarian): 2.59 µM [sample A, 1 test] and > 100 µM [sample B, 1 test] | GI50 (SN12C renal): 3.49 µM [sample A, 1 test] and > 100 µM [sample B, 1 test] | GI50 (SNB-19 CNS): 2.96 µM [sample A, 1 test] and > 100 µM [sample B, 1 test] | GI50 (SR leukemia): 362 nM [sample A, 1 test] and > 100 µM [sample B, 1 test] | GI50 (SW-620 colon): 1.24 µM [sample A, 1 test] and > 100 µM [sample B, 1 test] | GI50 (T-47D breast): 7.02 µM [sample A, 1 test] and > 100 µM [sample B, 1 test] | GI50 (U251 CNS): 2.97 µM [sample A, 1 test] and > 100 µM [sample B, 1 test] | GI50 (UACC-257 melanoma): 7.78 µM [sample A, 1 test] and > 100 µM [sample B, 1 test] | GI50 (UACC-62 melanoma): 928 nM [sample A, 1 test] and > 100 µM [sample B, 1 test] | GI50 (UO-31 renal): 6.85 µM [sample A, 1 test] and > 100 µM [sample B, 1 test]
